Reference: US20220002380A1 (CONSEJO SUPERIOR DE INVESTIGACIONES CIENTIFICAS, published 2022)

Biological target: T1, human lymphotoxin alpha (hLTα) (human, UniProt P01374 35-205)
T1 sequence: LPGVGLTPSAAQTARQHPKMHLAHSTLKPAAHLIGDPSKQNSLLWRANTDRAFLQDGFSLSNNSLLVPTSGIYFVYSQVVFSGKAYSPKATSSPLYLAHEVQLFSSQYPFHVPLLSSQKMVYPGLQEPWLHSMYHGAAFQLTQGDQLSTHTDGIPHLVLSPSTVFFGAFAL

B1: wild type (WT) Etanercept (TNFR2-Fc) (Fc fusion)
chain: LPAQVAFTPYAPEPGSTCRLREYYDQTAQMCCSKCSPGQHAKVFCTKTSDTVCDSCEDSTYTQLWNWVPECLSCGSRCSSDQVETQACTREQNRICTCRPGWYCALSKQEGCRLCAPLRKCRPGFGVARPGTETSDVVCKPCAPGTFSNTTSSTDICRPHQICNVVAIPGNASMDAVCTSTSPTRSMAPGAVHLPQPVSTRSQHTQPTPEPSTAPSTSFLLPMGPSPPAEGSTGD[gap - human IgG1 Fc]
Kd: 3.95 nM
